In article PMC6433973 one finds binding data, which are given here for four molecules.

For test [1], the target named is T1, endogenous FOXM1 (human (endogenous in HeLa and C33A)) (UniProt Q08050).
T1 sequence: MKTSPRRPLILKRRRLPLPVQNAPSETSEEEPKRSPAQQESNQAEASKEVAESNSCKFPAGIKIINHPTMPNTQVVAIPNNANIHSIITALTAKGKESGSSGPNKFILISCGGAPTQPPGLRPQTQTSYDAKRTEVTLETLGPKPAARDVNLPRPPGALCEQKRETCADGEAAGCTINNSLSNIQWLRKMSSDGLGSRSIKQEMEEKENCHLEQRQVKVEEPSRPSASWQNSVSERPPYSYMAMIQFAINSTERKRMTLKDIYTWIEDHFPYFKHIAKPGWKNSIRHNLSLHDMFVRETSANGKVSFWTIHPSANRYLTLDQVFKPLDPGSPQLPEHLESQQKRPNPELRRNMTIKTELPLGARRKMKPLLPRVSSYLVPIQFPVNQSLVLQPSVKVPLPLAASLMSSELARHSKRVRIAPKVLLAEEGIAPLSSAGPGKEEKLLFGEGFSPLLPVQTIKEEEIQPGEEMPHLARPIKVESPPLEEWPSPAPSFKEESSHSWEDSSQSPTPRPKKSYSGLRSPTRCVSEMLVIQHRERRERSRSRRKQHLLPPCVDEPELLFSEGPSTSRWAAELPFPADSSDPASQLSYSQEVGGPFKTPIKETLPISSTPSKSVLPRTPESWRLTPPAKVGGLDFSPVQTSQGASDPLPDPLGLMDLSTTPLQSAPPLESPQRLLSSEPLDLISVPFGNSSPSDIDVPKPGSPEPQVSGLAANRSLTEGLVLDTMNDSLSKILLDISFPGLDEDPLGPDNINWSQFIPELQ
The test is described as follows: co-IP; HeLa cell lysate, endogenous proteins; IP with anti-FOXM1 (C20) and blot for EPS8, and reverse IP with anti-EPS8 (610143) and blot for FOXM1; control antibodies anti-ETS2 and anti-p21.

Test [2] has as its target T1, endogenous FOXM1 (human (endogenous in HeLa and C33A)). The experiment in a line: co-IP; C33A cell lysate, endogenous proteins; IP with anti-FOXM1 (C20), control rabbit anti-ETS2; blot for EPS8.
The target in test [3] is EPS8(2-590) (Gal4 two-hybrid bait) (human) (UniProt Q12929). The experiment in a line: two-hybrid; Gal4-based Matchmaker system (Clontech); EPS8 constructs as bait in pGBT9, full-length FOXM1 as prey in pGAD424; growth on SC medium lacking leucine, tryptophan and histidine.
For test [4], the target named is T2, EPS8 bait encompassing the N-terminus up to amino acid 370 (Gal4 two-hybrid bait) (human) (UniProt Q12929).
T2 sequence: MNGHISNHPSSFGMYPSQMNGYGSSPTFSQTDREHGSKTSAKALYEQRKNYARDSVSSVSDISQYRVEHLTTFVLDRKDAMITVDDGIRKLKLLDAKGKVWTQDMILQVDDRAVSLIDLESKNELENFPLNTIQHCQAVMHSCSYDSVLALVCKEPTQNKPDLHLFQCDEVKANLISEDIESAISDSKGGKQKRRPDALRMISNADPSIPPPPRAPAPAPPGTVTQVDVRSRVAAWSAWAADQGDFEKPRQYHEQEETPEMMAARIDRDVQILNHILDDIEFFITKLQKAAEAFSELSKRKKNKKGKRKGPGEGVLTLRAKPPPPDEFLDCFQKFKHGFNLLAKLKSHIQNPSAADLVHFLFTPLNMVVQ
The description is as above.

Test [5] addresses T3, EPS8(2-528) (Gal4 two-hybrid bait) (human) (UniProt Q12929).
T3 sequence: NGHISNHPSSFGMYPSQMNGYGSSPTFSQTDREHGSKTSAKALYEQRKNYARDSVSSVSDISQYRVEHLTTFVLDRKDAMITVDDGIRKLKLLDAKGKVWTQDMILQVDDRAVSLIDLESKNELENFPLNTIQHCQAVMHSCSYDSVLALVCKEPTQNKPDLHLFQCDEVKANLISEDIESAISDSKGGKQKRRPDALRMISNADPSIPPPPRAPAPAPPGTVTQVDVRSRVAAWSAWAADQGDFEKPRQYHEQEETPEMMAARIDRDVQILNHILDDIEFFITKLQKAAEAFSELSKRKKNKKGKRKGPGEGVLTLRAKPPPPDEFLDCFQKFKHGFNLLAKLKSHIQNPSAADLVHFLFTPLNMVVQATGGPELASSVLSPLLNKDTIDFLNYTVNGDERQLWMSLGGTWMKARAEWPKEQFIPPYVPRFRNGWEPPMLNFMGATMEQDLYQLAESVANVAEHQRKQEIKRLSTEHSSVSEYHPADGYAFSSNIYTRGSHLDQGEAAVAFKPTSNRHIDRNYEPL
The description is as above.

The target of test [6] is T4, EPS8(2-264) (Gal4 two-hybrid bait) (human) (UniProt Q12929).
T4 sequence: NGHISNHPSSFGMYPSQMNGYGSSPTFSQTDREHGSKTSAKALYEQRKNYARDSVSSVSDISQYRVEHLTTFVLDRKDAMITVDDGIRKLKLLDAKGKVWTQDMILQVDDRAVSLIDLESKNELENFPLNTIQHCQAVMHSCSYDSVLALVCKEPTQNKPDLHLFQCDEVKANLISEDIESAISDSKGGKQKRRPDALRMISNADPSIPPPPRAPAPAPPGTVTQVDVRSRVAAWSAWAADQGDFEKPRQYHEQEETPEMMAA
The description is as above.

Test [7] concerns the target full-length human EPS8 (Gal4 two-hybrid bait) (human) (UniProt Q12929). The description is as above.
The target in test [8] is endogenous EPS8 (human (endogenous in HeLa and C33A)) (UniProt Q12929). The experiment in a line: co-IP; HeLa cell lysate, endogenous proteins; IP with anti-FOXM1 (C20) and blot for EPS8, and reverse IP with anti-EPS8 (610143) and blot for FOXM1; control antibodies anti-ETS2 and anti-p21.

No constants are given. Whether binding was seen depends on the method and setting. For part of these data: Binding seen in cells or lysates may run through a third protein. Some entries that bind do so weakly or less than the wild type.

On to “endogenous EPS8 (from UniProt Q12929 1-822)”, for which the binding entry in test [1] and in test [2] was “binds” each time.

B1: full-length human FOXM1c (Gal4 two-hybrid prey) (protein, UniProt Q08050-1 1-763)
chain: MKTSPRRPLILKRRRLPLPVQNAPSETSEEEPKRSPAQQESNQAEASKEVAESNSCKFPAGIKIINHPTMPNTQVVAIPNNANIHSIITALTAKGKESGSSGPNKFILISCGGAPTQPPGLRPQTQTSYDAKRTEVTLETLGPKPAARDVNLPRPPGALCEQKRETCADGEAAGCTINNSLSNIQWLRKMSSDGLGSRSIKQEMEEKENCHLEQRQVKVEEPSRPSASWQNSVSERPPYSYMAMIQFAINSTERKRMTLKDIYTWIEDHFPYFKHIAKPGWKNSIRHNLSLHDMFVRETSANGKVSFWTIHPSANRYLTLDQVFKPLDPGSPQLPEHLESQQKRPNPELRRNMTIKTELPLGARRKMKPLLPRVSSYLVPIQFPVNQSLVLQPSVKVPLPLAASLMSSELARHSKRVRIAPKVLLAEEGIAPLSSAGPGKEEKLLFGEGFSPLLPVQTIKEEEIQPGEEMPHLARPIKVESPPLEEWPSPAPSFKEESSHSWEDSSQSPTPRPKKSYSGLRSPTRCVSEMLVIQHRERRERSRSRRKQHLLPPCVDEPELLFSEGPSTSRWAAELPFPADSSDPASQLSYSQEVGGPFKTPIKETLPISSTPSKSVLPRTPESWRLTPPAKVGGLDFSPVQTSQGASDPLPDPLGLMDLSTTPLQSAPPLESPQRLLSSEPLDLISVPFGNSSPSDIDVPKPGSPEPQVSGLAANRSLTEGLVLDTMNDSLSKILLDISFPGLDEDPLGPDNINWSQFIPELQ
As to B1, the binding entry in test [3] is given as “binds”; in test [4], “no binding”; in test [5], “binds”; in test [6], “no binding”; in test [7], “binds”.

B2: endogenous FOXM1 (protein, UniProt Q08050 1-763)
chain: MKTSPRRPLILKRRRLPLPVQNAPSETSEEEPKRSPAQQESNQAEASKEVAESNSCKFPAGIKIINHPTMPNTQVVAIPNNANIHSIITALTAKGKESGSSGPNKFILISCGGAPTQPPGLRPQTQTSYDAKRTEVTLETLGPKPAARDVNLPRPPGALCEQKRETCADGEAAGCTINNSLSNIQWLRKMSSDGLGSRSIKQEMEEKENCHLEQRQVKVEEPSRPSASWQNSVSERPPYSYMAMIQFAINSTERKRMTLKDIYTWIEDHFPYFKHIAKPGWKNSIRHNLSLHDMFVRETSANGKVSFWTIHPSANRYLTLDQVFKPLDPGSPQLPEHLESQQKRPNPELRRNMTIKTELPLGARRKMKPLLPRVSSYLVPIQFPVNQSLVLQPSVKVPLPLAASLMSSELARHSKRVRIAPKVLLAEEGIAPLSSAGPGKEEKLLFGEGFSPLLPVQTIKEEEIQPGEEMPHLARPIKVESPPLEEWPSPAPSFKEESSHSWEDSSQSPTPRPKKSYSGLRSPTRCVSEMLVIQHRERRERSRSRRKQHLLPPCVDEPELLFSEGPSTSRWAAELPFPADSSDPASQLSYSQEVGGPFKTPIKETLPISSTPSKSVLPRTPESWRLTPPAKVGGLDFSPVQTSQGASDPLPDPLGLMDLSTTPLQSAPPLESPQRLLSSEPLDLISVPFGNSSPSDIDVPKPGSPEPQVSGLAANRSLTEGLVLDTMNDSLSKILLDISFPGLDEDPLGPDNINWSQFIPELQ
As for B2, the binding result in test [8] is reported as “binds”.

B3: full-length human FOXM1b (Gal4 two-hybrid prey) (protein, UniProt Q08050-2 1-748)
chain: MKTSPRRPLILKRRRLPLPVQNAPSETSEEEPKRSPAQQESNQAEASKEVAESNSCKFPAGIKIINHPTMPNTQVVAIPNNANIHSIITALTAKGKESGSSGPNKFILISCGGAPTQPPGLRPQTQTSYDAKRTEVTLETLGPKPAARDVNLPRPPGALCEQKRETCADGEAAGCTINNSLSNIQWLRKMSSDGLGSRSIKQEMEEKENCHLEQRQVKVEEPSRPSASWQNSVSERPPYSYMAMIQFAINSTERKRMTLKDIYTWIEDHFPYFKHIAKPGWKNSIRHNLSLHDMFVRETSANGKVSFWTIHPSANRYLTLDQVFKQQKRPNPELRRNMTIKTELPLGARRKMKPLLPRVSSYLVPIQFPVNQSLVLQPSVKVPLPLAASLMSSELARHSKRVRIAPKVLLAEEGIAPLSSAGPGKEEKLLFGEGFSPLLPVQTIKEEEIQPGEEMPHLARPIKVESPPLEEWPSPAPSFKEESSHSWEDSSQSPTPRPKKSYSGLRSPTRCVSEMLVIQHRERRERSRSRRKQHLLPPCVDEPELLFSEGPSTSRWAAELPFPADSSDPASQLSYSQEVGGPFKTPIKETLPISSTPSKSVLPRTPESWRLTPPAKVGGLDFSPVQTSQGASDPLPDPLGLMDLSTTPLQSAPPLESPQRLLSSEPLDLISVPFGNSSPSDIDVPKPGSPEPQVSGLAANRSLTEGLVLDTMNDSLSKILLDISFPGLDEDPLGPDNINWSQFIPELQ
With B3, in test [7], the binding result is “binds”.
